Data published in the RNAGym collection of RNA variant scans (doi:10.7554/elife.90254).
Read counts are not given, so values of variants with three or more changes are uncertain.

B1: LINE1-mini (parent)
chain: GGCAGAGCUCAACACAGCGUGGCAAAGUGGCUGUGGCUAGACUGCC

Variants of: B1
Assay: self-cleavage, relative activity (ratio to wild type); higher = more cleavage; in vitro, sequencing; the parent is a self-cleaving ribozyme

Variant | self-cleavage
G2C A16C C23U | 0.01
A4G G17A U28A U32G | 0
A6C A14C A26G C42U | 0.02
C15A A16U C23A G27C | 0.11
G1A G30U C45U | 0.37
C8A U9A C23A A24G | 0.08
C3G C15U G22U C42G | 0.05
G1A C3G C13A A14C G21A G36C | 0.22
G2U C10G G29C | 0.03
G1C G5U A41G G44A | 0.02
G5C A14C G44C | 0.04
G2C C15U U28G C37U G40C | 0.02
G1A C37A C42A | 0.05
G2U A4U A11G G36A | 0.02
C3A A25C G35C | 0.07
C3U U20C G30A G33A | 0.04
C13G U20G A25G U43C | 0.02
G2U G7A C8U A25C G29C U34C G36A | 0.05
G5A A11G C15G A24G G30C U34A G36U C46U | 0
C10A U20A G21U G29C C45G | 0.02
A6U G17U U20G G36A | 0.03
A11G C18A G22A G36C | 0
C3U G17C G19C G30C C45A | 0.2
G1A G2U C8G G36U | 0.08

Variant | self-cleavage
G1A A4C A24C | 0.09
A6C G7A U20A G21C U32C C45G | 0.06
U28A G33A G35C G44U C45U C46A | 0.05
C23G G27U U28A C37U | 0.02
G17A U32A G40A U43G | 0.03
A12G G17U C18A U34G G40C C46A | 0.08
A4G A25C G35A | 0.09
G7A U9G G27U G33U | 0.09
C10G A11U C23A C31G | 0.01
G7C C15U G21U C31U | 0.04
C3U G5C C15G G22U C23U | 0.04
U9G A11U A12G | 0.22
A12G G30U C31A | 0.05
C3A G7C C10A A11U C31G | 0.05
G2A A11G A16G A39C C45A | 0
G22U G30A G35A G36U C42G | 0.03
G5A G36A A39G | 0.01
G2A C15A U34C A39U U43C | 0.15
A12C A16U C46A | 0.03
C3A U28A C46U | 0.44
A24G C31U U38C G40A | 0.03
A6C G7U A16C G22U G30C U32A G44U | 0.02
U28C G33C C42U | 0.03
A4C C10G C45U | 0.02

Variant | self-cleavage
U9C G21U C42U | 0.04
G17U C23A G33C A41G | 0.02
A4C C10G G33U A39U G40C A41C | 0.01
U9C C13G G17A G29U | 0.03
G2A C8A G35A | 0.5
U20G A26G G29C A41U | 0.1
A12C A14C A16C G35A | 0.04
A11G C13U G22C G29C G44U | 0.01
G7U A16U C37U C46U | 0.04
G27A G29A G35A | 0.27
G22A U38A C42U C45U | 0.09
C3U C18U A25G C31U | 0.02
G2A G19U G30U C31G U43A | 0.05
U9C G22U U34A | 0.03
C3A C15A C31A | 0.35
G2A U32A U43A | 0.15
C3A G22C G36A | 0.51
C10A C13U A25U U34A | 0.01
U9A A14G C23A G36U | 0.15
U9G C18A G21U C31U | 0
A25G C42G C46A | 0
G7A U9A G30C G40A | 0.38
C10U C13U G33C C46G | 0.01
G2C A4U A6U G17U G21C C37U C42G | 0.01

Variant | self-cleavage
A11U G17A G44U | 0.02
C8G C10A C23G G33A | 0.01
A6U G33U C42A | 0.04
G5A A6C C15G C45U | 0.03
C8U C18G G33A | 0.16
C3G C18G G33C | 0.05
G2C C3G A25U C46A | 0.07
G2U G22A U34C | 0.01
A6U C10A A25C | 0.06
C3G U9G A16U G29U G30A | 0.11
C8A C10G C13G A14U | 0.03
G7C C10A G21U A24G U28A C46A | 0.01
A4G U9A G21C G44U | 0.06
G1C G7U A14C G29C G30U C31A U32C | 0.01
G1U C3A A6G | 0.32
G7A A11G A16U C42U | 0.03
C13A C15U A24U G44U | 0.03
C15U C37G C45U | 0.03
G33A A41G C42A | 0.06
A14G G21U G27C U34A C42A | 0.02
A12U C23A A26C G44U | 0.02
G19C U20A G21A C31A U34C | 0.02
G2C C8A G27U | 0.05
A11U C15A C18A G36U A39G A41U | 0.01

Variant | self-cleavage
G5C C31U G35U A39C | 0.01
A6U A12G C37U | 0.08
C3U G40U C42U | 0
A11G G36C U38A | 0.01
G17A U28G G40U | 0.11
C8G A12G C13U G35U | 0.01
C8U A11G C18A | 0.01
A12U G19U A39C | 0.16
A6C G7A C8A G33A A39G | 0.87
G2A G7U A39U | 0.03
C8A C31U C45U | 0.57
C3A C10G A14C | 0.03
C3A C8G A26U | 0.05
G7U A11U G30C | 0.02
A6C C10A C18U A39G | 0.01
A4U A11C C15G | 0.04
U9G A12G C18U G40U | 0.02
G7A G35U C37U | 0.01
G1U G17A G35U C42A G44A | 0.01
G2A G7C C46U | 0.34
C3U A12U G19A G29A G35A | 0.03
C3U A4G C8G G21C C37A | 0.04
C15A G21U G27A | 0.04
U34C C42U G44C | 0.03

Variant | self-cleavage
A6C G7A C10A | 0.01
C3A G30C C31U U38A | 0.17
C3A G33C A41C | 0.07
A16G C18A G36U A41C | 0.01
G7C C23A G35C G44A | 0.06
A11C G30U U38A | 0.08
G5A C8U U28A | 0.12
A4C C8A G17U G33U | 0.27
G5U C31G U32G | 0.07
G1U C18A U28A G30U A39G | 0.01
A11U A14G A41G | 0.02
G21A G35A G40U | 0.05
U9C C10A G30C G44U C45G | 0.03
G30U G40A C45U C46U | 0.05
G2A G33C U34A C37U | 0.11
A6C C10A G21A G29U | 0.05
C3A G5C C10A G33C G35U G36U C37A A39G | 0.05
A6G G22C G33C | 0.01
C18G G21U C42A C45G | 0.02
C3U A14G G21A G33A | 0.07
A6U G21U A26C | 1.56
G5U C23A G29C C31A C37G G40U C45U | 0.02
A11U A16C A24G | 0.03
C3A G30A G35C | 0.38

Variant | self-cleavage
A12C A16G G22U U38A A41G | 0.03
G19A G30A C45A | 0.47
G2C G5A C8A G22U C37A A41G | 0.38
G1U C3G G29A G44A | 0.15
C8U G29U G35A | 1.14
G17A G29U U43A | 0.05
G7A C10A A14U G21A G29A G33C U43G | 0.04
G27U C45A C46A | 0.03
A12G A41C C46U | 0.01
A11C A12U A14U | 0.03
A4C U32C C45A | 0.05
A6G C8A G21A | 0.65
A12G A39C C45U | 0
C18U U20A A26U A39C | 0.11
G7A C10G C18G G19A A25G G27U G30U G36A | 0.01
C18G G19U G30C | 0.99
C18G G35A U38C | 0.08
C3G G30U G44C | 0.93
G2U A11U G17A | 0.01
G7U A12G C46G | 0.02
U9G A12G G17U C37G C42U C45G | 0.06
A4U A16G A24U G36A | 0.09
G7U G17C G27C U34G | 0.04
